Source: PubChem BioAssay AID1030 (National Center for Advancing Translational Sciences (NCATS), 2008)
Screen size: about 220,000 compounds; about 16,000 (7.3%) were called active. Inconclusive results, whose numbers are uncertain, are shown with a selection of clear calls. Calls follow the shape of the dose curve; as a rule, active = well fitted inhibition curve with a large enough effect (not every such curve was filed as active); inconclusive = small, poorly fitted or top-dose-only effect, or another doubt; inactive = no such curve, though single readings can be large or run the other way. No potency is given beside an inconclusive call; the fits are too rough.

Biological target: Aldehyde dehydrogenase 1A1 (Homo sapiens) (UniProt P00352)
Experiment: qHTS Assay for Inhibitors of Aldehyde Dehydrogenase 1 (ALDH1A1);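 as to activity, negative = inhibition: plate controls were no enzyme wells and a reference inhibitor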
Conditions: Purified ALDH1A1, NADH fluorescence, propionaldehyde substrate; series mostly up to 75.3 µM; activity, negative = inhibition: at the top concentration
Potency is read from the fitted curve at half-maximal effect; tags tell the direction and shape of the fitted curve.

Chain of UniProt P00352 (P00352 whole entry, looked up): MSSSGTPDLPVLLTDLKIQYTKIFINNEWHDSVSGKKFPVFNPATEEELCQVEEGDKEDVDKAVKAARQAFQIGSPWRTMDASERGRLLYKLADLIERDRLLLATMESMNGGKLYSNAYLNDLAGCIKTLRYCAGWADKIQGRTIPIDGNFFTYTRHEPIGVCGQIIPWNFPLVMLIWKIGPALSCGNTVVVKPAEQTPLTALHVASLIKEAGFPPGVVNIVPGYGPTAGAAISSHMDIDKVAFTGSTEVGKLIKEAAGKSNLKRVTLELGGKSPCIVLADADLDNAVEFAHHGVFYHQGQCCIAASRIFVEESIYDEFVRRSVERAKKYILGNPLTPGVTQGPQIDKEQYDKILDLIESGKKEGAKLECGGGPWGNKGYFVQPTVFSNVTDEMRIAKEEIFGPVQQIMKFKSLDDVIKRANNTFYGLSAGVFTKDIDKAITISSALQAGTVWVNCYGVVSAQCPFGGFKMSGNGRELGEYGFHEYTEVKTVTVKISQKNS

Compound	Potency	activity, negative = inhibition
CCCc1nc2c(c(=O)c3ccccc3n2C)c(=O)n1C1CCCCCC1	inconclusive [inhibitor, partial curve]	
C[C@H](NC(=O)c1nc[nH]c1C(=O)N[C@@H](C)c1ccccc1)C(=O)OC(C)(C)C	active: 4.47 µM	
CCN(CCO)Cc1cc(=O)oc2c(C)c(C)ccc12	inconclusive [inhibitor, single point]	
COc1ccc(-c2[nH]ncc2CN(CCO)Cc2cccs2)c(F)c1	inconclusive [inhibitor, single point]	
O=C(c1ccccc1)N1CCC(O)(c2cccnc2)CC1	inconclusive [inhibitor, single point]	
CC(=O)c1cccc(NC(=O)NNC(=O)CCC(=O)Nc2ccc(C)c(C)c2)c1	inconclusive [inhibitor, partial curve]	
CCOC(=O)CNC(=O)CSc1nnc(-c2ccco2)n1Cc1ccco1	inconclusive [inhibitor, single point]	
CN(C)S(=O)(=O)c1ccc(/C(O)=C2/C(=O)C(=O)N(Cc3cccnc3)C2c2ccncc2)cc1 (centres undefined)	active: 14.1 µM	
O=C(Cc1ccccc1)c1c[nH]c(C(=O)NCCCn2ccnc2)c1	inconclusive [inhibitor, single point]	
CCOC(=O)c1cccc(NC(=O)c2ccc(N(C)C)cc2)c1	inconclusive [inhibitor, single point]	
CC(=O)NCCNc1nc(-c2ccccc2C)nc2ccccc12	inconclusive [inhibitor, partial curve]	
CSc1ccc(N2CCN(CCCNC(=O)Nc3ccccc3F)CC2)cc1	inconclusive [inhibitor, full curve]	
CCOC(=O)CSc1nnc(-c2cccnc2)o1		inactive: 13.4%
CC/C(C)=N/NC(=O)c1[nH]c2ccc(C)cc2c1-c1ccccc1	inconclusive [inhibitor, full curve]	
Cc1ccc(S(=O)(=O)Nc2ccc(-c3nnc(SCC#N)n3C)cc2)cc1		inactive: -0.246%
Oc1ccccc1/C=N/NC(=S)NC1CC2CC1C1C=CCC21 (centres undefined)		inactive: -12.2%
Cc1nc(Nc2nc3ccccc3o2)nc(C)c1C		inactive: -5.12%
CCOc1ccccc1NC1=CC(=O)CC(c2ccccc2)C1 (centres undefined)		inactive: -10.4%
O=C(Nc1nc(-c2ccccc2)nc2ccccc12)c1ccc(F)cc1	inconclusive [inhibitor, single point]	
COc1cccc2c(=O)n(CC(=O)N3CCCCCC3)ccc12	inconclusive [inhibitor, single point]	
CC(O)CNCCCOc1ccc(Cl)cc1C(C)(C)C (centres undefined)	inconclusive [inhibitor, partial curve]	
CCOc1ccc(NC(=O)CCN2C(=S)NC(C)(C)CC2C)cc1 (centres undefined)		inactive: 3.23%
CCCN1C(=O)c2ccccc2NC1c1ccc(OC)cc1O (centres undefined)	inconclusive [inhibitor, partial curve]	
CC(=O)Nc1ccc(NC(=S)NC(=O)c2ccc([N+](=O)[O-])c(C)c2)cc1		inactive: 3.84%
CCOc1cc(-c2cc(-c3ccc(C)o3)nc(N)c2C#N)ccc1O	inconclusive [inhibitor, single point]	

Compound	Potency	activity, negative = inhibition
CC(C)C[C@H](NC(=O)c1nc[nH]c1C(=O)NC(c1ccccc1)c1ccccc1)C(=O)OC(C)(C)C	inconclusive [inhibitor, full curve]	
Cc1ncc(CO)c(/C=N/NC(=S)Nc2ccc(Cl)c(Cl)c2)c1O	inconclusive [inhibitor, partial curve]	
c1ccc(Cn2c(Sc3nnnn3-c3ccccc3)nnc2-c2ccccc2)cc1	inconclusive [inhibitor, partial curve, poor fit]	
COC(=O)Cc1ccc(NC(=O)c2ccc(NC(=O)c3ccco3)cc2)cc1	inconclusive [inhibitor, single point]	
O=C1CC(Nc2ccc(N3CCOCC3)cc2)C(=O)N1c1ccccc1 (centres undefined)	inconclusive [inhibitor, single point]	
CCOC(=O)c1[nH]c2ccccc2c1NC(=O)c1ccc(S(=O)(=O)N(C)C)cc1	inconclusive [inhibitor, single point]	
COCCN(C(=O)Cc1cccs1)C(C(=O)NCc1ccc(OC)cc1)c1ccc(OC)cc1 (centres undefined)	active: 2.24 µM	
O=C1CC(c2ccccc2)Sc2ccccc2N1 (centres undefined)	inconclusive [inhibitor, single point]	
COc1ccc(C(=O)NCc2ccccc2)cc1Br		inactive: 3.61%
COc1ccccc1CC(=O)Nc1ccc(O)cc1C(=O)O	inconclusive [inhibitor, single point]	
CCOC(=O)C1CSC(Cc2ccc(OCc3ccc([N+](=O)[O-])cc3)cc2)N1 (centres undefined)		inactive: 5.33%
O=[N+]([O-])c1ccc(Sc2cccc[n+]2[O-])c2nonc12	active: 2.24 µM	
CC(=O)Nc1ccc(N2C(=O)CC(N3CCN(Cc4ccc5c(c4)OCO5)CC3)C2=O)cc1 (centres undefined)	inconclusive [inhibitor, single point]	
COc1ccc(CCNC(=O)c2ccc(SC)cc2OC)cc1	inconclusive [inhibitor, single point]	
CCc1cc(=O)oc2c(C)c(O)c(CN3CCCCC3)cc12	inconclusive [inhibitor, partial curve]	
CCNC(=S)NNC(=O)c1cccn(Cc2ccc(Cl)cc2Cl)c1=O		inactive: -3.75%
O=C(NC1CCCC1)C(c1cccs1)N(Cc1ccco1)C(=O)c1csnn1 (centres undefined)	inconclusive [inhibitor, single point]	
COc1ccc2c(c1)C(c1cccs1)=NNC(c1cccnc1)=N2		inactive: -17.1%
CC(=O)NC(C)C(c1cccs1)N1CCN(c2ccccc2)CC1 (centres undefined)	inconclusive [inhibitor, single point]	
CNC(=O)COC(=O)c1cc(-c2ccc(OC)cc2)nc2ccccc12	inconclusive [inhibitor, single point]	
CCCCCC(=O)N1CCN(CCN=CC2=C(O)CC(c3ccco3)CC2=O)CC1 (centres undefined)	inconclusive [inhibitor, single point]	
NC(=S)N/N=C\c1ccc(-c2cccc(Cl)c2Cl)o1	active: 31.6 µM	
COc1cc(/C=C2\SC(=S)N(Nc3ccccc3)C2=O)cc(OC)c1OC	active: 7.08 µM	
CCOC(=O)c1c(N)n(-c2ccc(N)cc2)c2nc3ccccc3nc12		inactive: 0.623%
COc1ccc(S(=O)(=O)N2Cc3ccccc3CC2C(=O)O)cc1 (centres undefined)	inconclusive [inhibitor, single point]	

Compound	Potency	activity, negative = inhibition
Cc1ccc(/C=C(/C#N)C(=O)NC(=O)Oc2ccccc2)cc1		inactive: 3.93%
CCC(=O)N1CCc2cc(S(=O)(=O)NCCN3CCCCC3CC)ccc21 (centres undefined)	inconclusive [inhibitor, single point]	
Cc1onc(-c2ccccc2)c1C(=O)N/N=C/c1ccco1	inconclusive [inhibitor, single point]	
Cc1cc(=O)n2c3ccccc3n(CC(O)CN3CCCC3)c2c1C#N (centres undefined)	inconclusive [inhibitor, single point]	
COc1ccc(C(=O)CSc2nc(C)cc(C)n2)cc1[N+](=O)[O-]	active: 2.24 µM	
Cn1c(SCC(=O)NCc2ccco2)nnc1-c1ccc(S(=O)(=O)N2CCOCC2)cc1		inactive: -15.9%
CCOC(=O)c1c(NC(=O)C(C)N2CCN(S(=O)(=O)c3cccs3)CC2)sc2c1CCC(C)C2 (centres undefined)		inactive: 6.47%
CCCc1c(O)nc(SCC(=O)NCc2ccco2)[nH]c1=O		inactive: 7.05%
O=C(CSc1nnnn1-c1ccccc1)CC(=O)Nc1ccc(Cl)cc1	active: 2.24 µM	
C(=N\Nc1nc(Nc2ccccc2)nc(N2CCOCC2)n1)/c1c[nH]c2ccccc12		inactive: 6.63%
C/C(=C\C(=O)c1ccccc1)NCc1ccc(F)cc1	inconclusive [inhibitor, single point]	
Cc1c(Cl)c([N+](=O)[O-])nn1CCCC(=O)Nc1sc2c(c1C(N)=O)CCC(C)C2 (centres undefined)		inactive: 5.02%
NS(=O)(=O)c1ccc(CCNC(=O)CSc2nc3ccccc3c(=O)n2CCC(=O)N2CCCCC2)cc1	active: 7.94 µM	
CCN(CC)CCNC(=O)c1c(O)c2cc(OC)c(OC)cc2[nH]c1=O	inconclusive [inhibitor, partial curve]	
CCCCC(CC)COP(=O)(OCC(CC)CCCC)OCC(CC)CCCC (centres undefined)		inactive: -4.48%
Cc1cccc(C(C(N)=O)c2ncc(C(F)(F)F)cc2Cl)c1 (centres undefined)		inactive: 0.657%
CCC(=O)NC(=S)Nc1ccccc1OC		inactive: -5.04%
Cc1cc(NC(=O)CSc2nnc(-c3ccncc3)n2-c2ccccc2)no1	inconclusive [inhibitor, partial curve, poor fit]	
COC(=O)c1c(NC(=O)CSc2nncs2)sc2c1CCCCC2	inconclusive [inhibitor, single point]	
CC(=O)NS(=O)(=O)c1ccc(NC(=O)c2cc(-c3ccc(C)cc3)nc3ccccc23)cc1	inconclusive [inhibitor, single point]	
Cc1ccccc1Nc1nc(N)c2ccccc2n1		inactive: -3.5%
COc1ccc(N2CCN(C(=O)CSc3nnc(NC(=O)C4CC4)s3)CC2)cc1		inactive: -0.278%
N#Cc1c(-c2ccccc2)ccn(Cc2cccc(Cl)c2)c1=O	inconclusive [inhibitor, single point]	
CCCCCC(=O)Nc1nc(C)c(-c2csc(Nc3ccc(Cl)cc3)n2)s1	inconclusive [inhibitor, single point]	
